Measurements as given in the supplement of paper PMC7125110.
± gives the standard error. This sample is rich in variants without activity.

B1: glmS ribozyme (parent)
chain: AUAAAAGCGCCAGAACUACAGAAAUGUAGUUGACGAGGAGGAGGUUUAUCGAAUUUUCGGCGGAUGCCUCCAAA

Legend:
Conditions in all cases: with glucosamine-6-phosphate
[1] = variants of: B1; test: self-cleavage kobs at 40 uM GlcN6P; higher = faster cleavage; RNA array
Summary of the method: (§1)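 Glucosamine-6-phosphate in HEPES/KCl/Mg(OAc)2 buffer, at 40 μM to 10 mM, was flowed over barcoded ribozyme variants transcribed in situ by E. coli RNA polymerase on sequenced MiSeq chips. Tracking was through a hybridised Cy3 probe at 37 °C. kobs, kcat and KM came from exponential decay fits and weighted Michaelis–Menten fits of normalised per-tile medians.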

[2] = variants of: B1; test: self-cleavage kobs at 640 uM GlcN6P; higher = faster cleavage; RNA array
Summary of the method: as §1

[3] = variants of: B1; test: self-cleavage kobs at 2500 uM GlcN6P; higher = faster cleavage; RNA array
Summary of the method: as §1

[4] = variants of: B1; test: self-cleavage kobs at 10000 uM GlcN6P; higher = faster cleavage; RNA array
Summary of the method: as §1

[5] = variants of: B1; test: self-cleavage kobs at 160 uM GlcN6P; higher = faster cleavage; RNA array
Summary of the method: as §1

Row | Variant | self-cleavage kobs at 40 uM GlcN6P [1] [s⁻¹] | self-cleavage kobs at 640 uM GlcN6P [2] [s⁻¹] | self-cleavage kobs at 2500 uM GlcN6P [3] [s⁻¹] | self-cleavage kobs at 10000 uM GlcN6P [4] [s⁻¹] | self-cleavage kobs at 160 uM GlcN6P [5] [s⁻¹]
1 | C11G G40A U45G | < 1e-05 | < 1e-05 | < 1e-05 | < 1e-05 | –
2 | C11G G41C C50U | < 1e-05 | – | – | – | –
3 | C11G G43U | < 1e-05 | < 1e-05 | < 1e-05 | < 1e-05 | < 1e-05
4 | C11G G43U G51A | < 1e-05 | – | – | < 1e-05 | –
5 | C11G U45C | < 1e-05 | < 1e-05 | < 1e-05 | < 1e-05 | < 1e-05
6 | C11G U46G | < 1e-05 | < 1e-05 | < 1e-05 | – | < 1e-05
7 | C11G U54C | < 1e-05 | – | – | – | –
8 | C11G U55C | < 1e-05 | < 1e-05 | – | – | < 1e-05
9 | C11G U56C | < 1e-05 | – | – | < 1e-05 | –
10 | C11G U56C C71U | < 1e-05 | – | – | < 1e-05 | –
11 | C11U A12U U30G U31C G38C U54A | < 1e-05 | – | – | – | –
12 | C11U A14G U31G G43U U69G | < 1e-05 | < 1e-05 | – | – | –
13 | C11U A15C G62C | < 1e-05 | – | – | – | –
14 | C11U A15G G43A C67G | < 1e-05 | – | 0.000114 ± 3.9e-05 | 0.000119 ± 3.5e-05 | –
15 | C11U A33C A53U U57G G60U | < 1e-05 | – | – | < 1e-05 | –
16 | C11U A33U G35U A39U G60A | < 1e-05 | – | – | – | –
17 | C11U A36G | < 1e-05 | < 1e-05 | < 1e-05 | – | < 1e-05
18 | C11U A39C A48U | < 1e-05 | < 1e-05 | – | – | < 1e-05
19 | C11U A42C G62C | < 1e-05 | < 1e-05 | – | < 1e-05 | –
20 | C11U A42C U56A C68A | < 1e-05 | – | – | < 1e-05 | –
21 | C11U A48U G51U | < 1e-05 | – | – | – | –
22 | C11U C34U G35U U49C G60U | < 1e-05 | < 1e-05 | – | – | –
23 | C11U C61U | < 1e-05 | < 1e-05 | – | < 1e-05 | –
24 | C11U G13A | < 1e-05 | – | 3.03e-05 ± 1.4e-05 | 6.97e-05 ± 1.7e-05 | –
25 | C11U G13C C16A U49A | < 1e-05 | < 1e-05 | – | – | < 1e-05
26 | C11U G29A U30G G32C G59C | < 1e-05 | – | – | – | –
